Assay results: the antibiotic and cytotoxicity screens of Wong et al. (2023)
This is one part of the list.

Each compound was assayed on HSkMC (human skeletal muscle cells) (assay: cytotoxicity call (relative viability < 0.9)). Details: 10 µM.
`C=CC1CN2CCC1CC2C(O)c1ccnc2ccc(OC)cc12.O=C(O)C(O)C(O)C(O)C(O)CO` (stereo unspecified) was tested, and the cytotoxicity call was “inactive”.
`C[C@@H]1CN([C@@H](C)CO)S(=O)(=O)c2ccc(C#Cc3ccccc3)cc2O[C@H]1CN(C)S(=O)(=O)c1ccccc1F` was tested, and the cytotoxicity call was “inactive”.
`CCOc1cc(OCC)cc(C(=O)N[C@@H](Cc2ccc(-n3cc(-c4ccc(C(=O)NO)s4)nn3)cc2)C(=O)OC)c1` was tested, and the cytotoxicity call was “inactive”.
With `O=C(Nc1ccccc1)C1=C[C@@H](c2ccc3c(c2)Cc2ccccc2-3)C[C@@H](OCc2ccc(CO)cc2)O1` the cytotoxicity call was “inactive”.
`C[C@@H]1CCCCO[C@@H](CN(C)S(=O)(=O)c2ccccc2)[C@@H](C)CN([C@@H](C)CO)C(=O)c2cc(NC(=O)Nc3cccc4ccccc34)ccc2O1` was tested, and the cytotoxicity call was “inactive”.
`COc1ccc(S(=O)(=O)Nc2ccc3c(c2)C(=O)N([C@H](C)CO)C[C@@H](C)[C@@H](CN(C)C(=O)Nc2c(C)noc2C)OCCCC[C@@H](C)O3)cc1` was tested, and the cytotoxicity call was “inactive”.
For `COc1ccc(cc1)CN1C[C@]2(CN(C2)S(=O)(=O)c2cn(cn2)C)c2c([nH]c3cc(ccc23)OC)[C@H]1CO`, the cytotoxicity call was “inactive”.
For `Nc1ccc(-n2cc(CCC(=O)NO)nn2)cc1`, the cytotoxicity call was “inactive”.
For `COc1ccc(S(=O)(=O)N(C)C[C@H]2Oc3ccc(NS(C)(=O)=O)cc3CC(=O)N([C@H](C)CO)C[C@H]2C)cc1`, the cytotoxicity call was “inactive”.
With `Cc1ccc(S(=O)(=O)Nc2ccc3c(c2)C(=O)N([C@@H](C)CO)C[C@@H](C)[C@H](CN(C)CC2CCCCC2)OCCCC[C@H](C)O3)cc1` the cytotoxicity call was “inactive”.
In the case of `COc1cccc(S(=O)(=O)Nc2ccc3c(c2)OC[C@@H](C)N(C(=O)Cc2cccnc2)C[C@@H](C)[C@H](OC)CN(C)C3=O)c1`, the cytotoxicity call is reported as “inactive”.
For `C[C@@H]1CCCCO[C@@H](CN(C)C(=O)CCC(F)(F)F)[C@@H](C)CN([C@H](C)CO)C(=O)c2cc(NS(=O)(=O)c3ccc(Cl)cc3)ccc2O1`, the cytotoxicity call was “inactive”.
For `O=C(C[C@H]1C=C[C@@H](NC(=O)CN2CCOCC2)[C@H](CO)O1)NCCc1ccncc1`, the cytotoxicity call was “inactive”.
For `CCC(=O)NC[C@H](Cc1ccc(OCCc2nc(-c3ccccc3)oc2C)cc1)N/C(C)=C\C(=O)c1ccc(C(F)(F)F)cc1`, the cytotoxicity call was “active”.
In the case of `C[C@@H]1CCCCO[C@@H](CN(C)C(=O)Nc2cccc3ccccc23)[C@H](C)CN([C@@H](C)CO)C(=O)c2cc(NC(=O)Nc3cccc4ccccc34)ccc2O1`, the cytotoxicity call is reported as “active”.
`Cc1noc(C)c1NC(=O)Nc1ccc2c(c1)C(=O)N([C@H](C)CO)C[C@H](C)[C@H](CN(C)C(=O)Nc1ccc(F)cc1)OCCCC[C@H](C)O2` was tested, and the cytotoxicity call was “inactive”.
For `C[C@H]1CCCCO[C@H](CN(C)C)[C@@H](C)CN([C@@H](C)CO)C(=O)c2cc(NC(=O)CCCN(C)C)ccc2O1`, the cytotoxicity call was “inactive”.
`CN1CCN(CCO)C(=O)C12CCN(S(=O)(=O)C1CC1)CC2` was tested, and the cytotoxicity call was “inactive”.
With `COCC(=O)N1[C@@H]2CC[C@H]1COC2` the cytotoxicity call was “inactive”.
For `NCCN1CCO[C@H](c2ccccc2)C1`, the cytotoxicity call was “inactive”.
For `C[C@@H]1CN([C@@H](C)CO)C(=O)c2cc(NC(=O)Nc3cccc4ccccc34)ccc2O[C@@H]1CN(C)C(=O)Nc1ccccc1`, the cytotoxicity call was “inactive”.
`C[C@H](CO)N1C[C@H](C)[C@@H](CN(C)Cc2ccc(C(F)(F)F)cc2)Oc2c(NC(=O)c3nc4ccccc4s3)cccc2C1=O` was tested, and the cytotoxicity call was “inactive”.
In the case of `COc1ccc(CNC(=O)c2cc3c(c(-c4cccc(-c5cccc(C#N)c5)c4)n2)[C@@H](CCO)N([S@](=O)C(C)(C)C)C3)cc1`, the cytotoxicity call is reported as “inactive”.
`Cc1noc(C)c1S(=O)(=O)Nc1ccc2c(c1)C(=O)N([C@@H](C)CO)C[C@H](C)[C@@H](CN(C)Cc1ccc3c(c1)OCO3)O2` was tested, and the cytotoxicity call was “inactive”.
For `CC12CCC(CC1)C(C)(C)O2`, the cytotoxicity call was “inactive”.
`CN1CCN(C)[C@@H](CO)C1` was tested, and the cytotoxicity call was “inactive”.
`C/C=C/c1cnc2c(c1)C(=O)N([C@@H](C)CO)C[C@H](C)[C@H](CN(C)S(=O)(=O)c1ccc(OC)cc1)O2` was tested, and the cytotoxicity call was “inactive”.
`C[C@H]1CN([C@@H](C)CO)C(=O)Cc2cc(NC(=O)NC3CCCCC3)ccc2O[C@H]1CN(C)S(=O)(=O)c1cn(C)cn1` was tested, and the cytotoxicity call was “inactive”.
`C[C@@H]1CCCCO[C@H](CN(C)Cc2ccccc2)[C@H](C)CN([C@H](C)CO)C(=O)c2cc(NC(=O)Nc3ccc(F)cc3)ccc2O1` was tested, and the cytotoxicity call was “inactive”.
In the case of `CC(C)(C)NC(=O)[C@@H]1C[C@@H]2CCCC[C@@H]2CN1C[C@@H](O)[C@H](Cc1ccccc1)NC(=O)[C@H](CC(N)=O)NC(=O)c1ccc2ccccc2n1`, the cytotoxicity call is reported as “inactive”.
`Cc1occc1CN` was tested, and the cytotoxicity call was “inactive”.
